The values below come from the supplement of paper PMC3334620.

Over roughly 33,000 sequences, “E-score (-0.5 to 0.5)” has its median near -0.035; the highest 2% begin near 0.34. The list shows a part of the results.

In the assay the target is T1, Mot3 (UniProt P54785).
T1 sequence: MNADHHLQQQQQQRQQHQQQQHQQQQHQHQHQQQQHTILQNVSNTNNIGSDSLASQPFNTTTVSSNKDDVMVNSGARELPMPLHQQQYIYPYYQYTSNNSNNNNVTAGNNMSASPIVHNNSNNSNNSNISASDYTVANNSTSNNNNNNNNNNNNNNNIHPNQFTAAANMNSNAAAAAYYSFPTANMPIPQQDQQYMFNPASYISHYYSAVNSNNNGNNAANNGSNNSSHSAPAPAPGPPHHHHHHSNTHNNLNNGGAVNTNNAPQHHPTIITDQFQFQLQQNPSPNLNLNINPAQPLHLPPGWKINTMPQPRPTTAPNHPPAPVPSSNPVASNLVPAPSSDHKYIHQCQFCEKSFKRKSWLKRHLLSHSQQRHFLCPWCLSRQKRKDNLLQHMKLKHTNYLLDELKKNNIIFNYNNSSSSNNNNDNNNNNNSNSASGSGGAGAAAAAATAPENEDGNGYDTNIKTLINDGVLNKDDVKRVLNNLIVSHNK
Description: PBM E-score (8-mer binding enrichment) (E-score (-0.5 to 0.5)); higher = stronger / more preferred TF binding; most listed sequences are background and not binding sites. The conditions noted are these: protein concentration: 200 nM; construct: GST-full length. As for the experimental part: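 Universal 'all 10-mer' protein binding microarrays (Agilent AMADID 015681) probed with GST-tagged S. cerevisiae TFs (full-length or DBD) made by in vitro transcription/translation (PURExpress), about 100-200 nM. Bound TF was detected with fluorescent anti-GST. Each ungapped 8-mer (which stands for itself and its reverse complement) is scored by the PBM enrichment score (E-score), a modified Wilcoxon-Mann-Whitney statistic from -0.5 to +0.5, computed with the Universal PBM Analysis Suite. Scale: above 0.35 generally sequence-specific binding.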
Turning to ACAATTAT, the “PBM E-score” value is 0.204. Regarding ACCAGACT, the “PBM E-score” value is -0.13. Regarding CCTAAAAA, the “PBM E-score” value was determined as 0.146. For TGGCAAAA, the “PBM E-score” value was 0.0985. With CCAGTTAC, the “PBM E-score” value was -0.0733. Take ATCCCAGG: the “PBM E-score” value was -0.181.

Regarding ATATAGTG, the “PBM E-score” value was -0.0368. As to ACCGCACG, the “PBM E-score” value is -0.0455. In the case of ACTCGCAC it was -0.285; in that of CCCCTATC, -0.227. Consider GAAGAGCC, for which the “PBM E-score” value was -0.106. As to AGTCCGTA, the “PBM E-score” value was -0.00492. In the case of GCCCCAAC it was -0.131; in that of AGGTCATC, -0.243.

Regarding AATGTTCC, the “PBM E-score” value was determined as 0.187.

For the sequence CCCGTCGG, the “PBM E-score” value is -0.086. As to CAATTGCG, the “PBM E-score” value amounted to 0.138. In the case of GTTCACTA, the “PBM E-score” value was -0.0105.

Turning to GCCGTTAA, the “PBM E-score” value is -0.161. In the case of AAGAGGTC it was -0.361; in that of ATCAACTG, -0.0772; in that of ACAGCCTA, 0.126. In the case of GCATCCTA, the “PBM E-score” value is -0.173. On to CAGGAGAC, for which the “PBM E-score” value is 0.0282. Take CTTTGCAC: the “PBM E-score” value was determined as 0.149. For ACATAGCG, the “PBM E-score” value came out at 0.188. With GGGAAGTA, the “PBM E-score” value is -0.0915. In the case of TCCCCGAA, the “PBM E-score” value is -0.225. With GGTCCTAA, the “PBM E-score” value is -0.0727. The figure for CGCCTAGA is -0.088; for CATAGGCA it is 0.476.

GACGCATC: the “PBM E-score” value was -0.109.

For the sequence GTCACTTA, the “PBM E-score” value was 0.0144. Turning to ATGGGCCG, the “PBM E-score” value was -0.159. With TTAATTAA, the “PBM E-score” value came to 0.0121. In the case of ACGACTCA it was 0.0427; in that of CAATCGCA, -0.0193; in that of CCGCTGTA, -0.0031.

CGCCCACG: the “PBM E-score” value was -0.3. With AGTATCTA, the “PBM E-score” value is -0.0872.

Consider CCTTAGGC, for which the “PBM E-score” value turned out to be 0.146.

Consider AGTGTGCG, for which the “PBM E-score” value was -0.149. In the case of GGATCTGA, the “PBM E-score” value is -0.193. The figure for ATTCGTCA is -0.0191; for ACCCTGAC it is -0.152. In the case of ATGGTATC it was -0.272; in that of GTTATTGA, 0.0955; in that of CAATGGGA, -0.0576. Turning to ACGATTCC, the “PBM E-score” value is -0.0992. Consider ATGGTGTC, for which the “PBM E-score” value was -0.0757.

Take GAATGGAC: the “PBM E-score” value is -0.107. Turning to CCGTATTA, the “PBM E-score” value is 0.123. Consider AAATATGC, for which the “PBM E-score” value is -0.131. Take TAGGTATA: the “PBM E-score” value is -0.0008. In the case of TCCGCCCA, the “PBM E-score” value was -0.14. Consider GGTGGCTA, for which the “PBM E-score” value was -0.108. With AAATCCCA, the “PBM E-score” value was -0.154. As to CCAACCGC, the “PBM E-score” value is -0.169. AATTTAGA: the “PBM E-score” value is -0.016. Take GATTATTA: the “PBM E-score” value is 0.104. On to CCGGGTCC, for which the “PBM E-score” value is -0.279.

Take TAATACAA: the “PBM E-score” value came to 0.257. In the case of AAGATTAT, the “PBM E-score” value is -0.0537.

As to TCCCTTAA, the “PBM E-score” value worked out at 0.126. The figure for GTTGCAGA is 0.0146; for TTCTACAA it is 0.204.

Regarding AGAATGAT, the “PBM E-score” value was found to be 0.0126. With GTTCGTAA, the “PBM E-score” value was determined as 0.145. With GTTGTCCA, the “PBM E-score” value stood at 0.0581. For AAATCCAG, the “PBM E-score” value was -0.0517.

As to AAGTACTC, the “PBM E-score” value turned out to be 0.0593. For CAATAGTA, the “PBM E-score” value was determined as 0.138. Consider AGCTGTGA, for which the “PBM E-score” value is -0.134. Consider CTTTAGTA, for which the “PBM E-score” value is 0.025. For the sequence TGAAGGCA, the “PBM E-score” value amounted to 0.483. CATGCATA: the “PBM E-score” value stood at 0.226.

Take TCGGTGCA: the “PBM E-score” value turned out to be 0.0212.

For the sequence TAGTGGAA, the “PBM E-score” value is -0.00095. Turning to CTCACATA, the “PBM E-score” value stood at 0.0931. For the sequence CGGCCCCA, the “PBM E-score” value is -0.362. As for ATCGAGCC, the “PBM E-score” value is -0.12.

Take GCTTAACA: the “PBM E-score” value stood at 0.229. The figure for GCGCCGGA is -0.175; for CGGCGATC it is -0.211. Consider CCGGCAGA, for which the “PBM E-score” value was -0.299. As for ACGCTTAT, the “PBM E-score” value is -0.0877.
